The supplement of paper PMC10126150
Values marked as one replicate rest on one cluster of the flow cell; about a third of the high ones do not repeat.

Test system: ATP
Test: switch fluorescence ratio, 500 uM ATP over buffer (Cy3 cluster intensity, sum of 5 cycles each) (fold (ratio)); higher = stronger signal-on switching upon ATP binding; sequences stand for … in TCGTCGGCAGCGTCAGATGTGTATAAGAGACAGTTTTTTTTTTTTTTTTTTTTTTTTT…TC
Details: aptamer strand: ATP DNA aptamer (quencher-CACCTGGGGGAGTATTGCGGAGGAAGG + anchor), 100 nM annealed; ATP concentration: 500 uM; one replicate
Method in brief: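 The fluorescence ratio divides summed target-cycle Cy3 intensity by summed buffer-cycle Cy3 intensity for each cluster and is averaged per switch-domain sequence. Cy3-labelled switching-strand clusters on a modified Illumina MiSeq flow-cell were annealed to 100 nM quencher-labelled ATP aptamer, then imaged in selection buffer and again after 15 min with 500 uM ATP at 22 °C. Five such cycles were run, with NaOH stripping and re-annealing between them, and clusters outside 100-1000 RFU were excluded.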
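Also: ATP exposure 15 min at 22 °C before imaging.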

Sequence	switch fluorescence ratio
ATCTCGTTAT	0.986
ATCTCTACAT	1.02
ATCTCTGCCT	1.07
ATCTCTGGCG	0.99
ATCTGAAGAC	2.66
ATCTGAATGT	0.949
ATCTGAGGCT	0.982
ATCTGATTAA	0.994
ATCTGCGCCA	1.14
ATCTGCTACG	1.01
ATCTGGCAAC	1.17
ATCTGGCTGT	1.02
ATCTGGTGC	1.19
ATCTGTGACG	0.881
ATCTGTGGCT	1.02
ATCTGTTTGG	0.977
ATCTTAAACA	0.973
ATCTTGAATT	0.991
ATCTTGTAG	1.02
ATCTTGTAGG	1
ATCTTGTTCG	0.987
ATCTTTAAAA	1.02
ATCTTTCTAC	1.02
ATGAAACAGG	1.05
ATGAAAGAAA	0.973

Sequence	switch fluorescence ratio
ATGAACGAGG	0.998
ATGAAGAAAC	1.03
ATGAAGTTCC	1.06
ATGAATAAGA	0.963
ATGAATGCTG	0.993
ATGAATTAAT	0.968
ATGAATTGA	0.952
ATGACAAGCA	1.1
ATGACGGGAT	1.02
ATGACTCTGT	1
ATGAGAGATG	0.981
ATGAGATAGC	1.04
ATGAGCACTA	1.03
ATGAGCATCG	0.976
ATGAGCGAAC	1.06
ATGAGGAACA	0.974
ATGAGTAACT	0.944
ATGAGTTTGG	0.939
ATGATTATTT	0.983
ATGATTCGTC	1.01
ATGCAACAGT	1.04
ATGCACGGTT	1.09
ATGCACTATG	1.01
ATGCACTGCG	0.987
ATGCAGCAAG	1.86

Sequence	switch fluorescence ratio
ATGCAGGTGG	1.02
ATGCAGGTTC	1.03
ATGCAGTTCG	1.02
ATGCATAGCG	1
ATGCATGTTT	1
ATGCCAATAG	1.09
ATGCCAGTTT	0.948
ATGCCATTGG	0.968
ATGCCCCACC	1.04
ATGCCCCATT	1.05
ATGCCCGGGT	1.02
ATGCCCTCGT	0.981
ATGCCGGCGC	0.953
ATGCCTAGCC	0.991
ATGCCTCCCG	1.16
ATGCGACGTA	0.948
ATGCGATGGA	1.05
ATGCGATTGT	0.949
ATGCGCGGA	1.02
ATGCGCGTGG	1.03
ATGCGTGACT	1.04
ATGCTAAGAC	1.23
ATGCTATTTA	0.979
ATGCTGATGG	0.963
ATGCTGGCTT	1.05

Sequence	switch fluorescence ratio
ATGCTGTGGG	1.05
ATGCTGTTGA	1.01
ATGCTTAATA	0.998
ATGCTTCATG	0.974
ATGCTTCTTG	1.02
ATGCTTGTCA	0.976
ATGCTTTGGC	1.02
ATGCTTTTCT	0.989
ATGGAAACTC	1.02
ATGGAAATCT	1.08
ATGGAACAAA	0.996
ATGGAACATT	0.995
ATGGACCGC	1.11
ATGGAGCGCG	1
ATGGAGGAGT	0.967
ATGGATCATG	1.02
ATGGATGCGA	0.98
ATGGCAACCT	1.51
ATGGCACCAT	0.99
ATGGCACCCG	1.07
ATGGCCACAT	0.998
ATGGCCACCG	0.999
ATGGCGCAG	0.923
ATGGCGGTTT	0.989
ATGGCGTCGG	0.973
